Test results: the supplement of paper PMC4604168 (melanoma cell lines)
This is one part of the list. Repeats are few or missing, and single values can be far off.

system: WM1745; test: cell count relative to DMSO control; melanoma cells; higher = more viable cells; conditions: library dose: low library concentration; 72 h
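Also: cell number obtained by counting DAPI-stained nuclei in high-throughput microscope images with image analysis software, screen run in 1,536-well plates.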

SMILES	cell count
O=C(Nc1ccccc1)c1cc([N+](=O)[O-])ccc1Cl + c1cc(-c2cnn3cc(-c4ccc(OCCN5CCCCC5)cc4)cnc23)ccn1 [Dorsomorphin] (first compound 2 µM, partner dose 0.4 µM)	76.7%
O=C(O)[C@@H]1[O][Sb](=[O])([O][Sb]2(=[O])[O][C@H]([C@H](O)CO)[C@H](O)[C@H](C(=O)O)[O]2)[O][C@H]([C@H](O)CO)[C@@H]1O (some centres undefined) [stibogluconate] + Cn1nnc2c(C(N)=O)ncn2c1=O [temozolomide] (first compound 2 µM, partner dose 2 µM)	91.8%
Cc1cc(N2CCOCC2)cc2[nH]c(-c3c(NC[C@@H](O)c4cccc(Cl)c4)cc[nH]c3=O)nc12 + COc1ccc(COc2ccc(Cc3cnc(N)nc3N)cc2OC)cc1 [GW2580] (first compound 0.2 µM, partner dose 1 µM)	84%

system: WM3526; test: as above; conditions: library dose: low library concentration; 72 h

SMILES	cell count
O=C(O)c1ccc2c(c1)nc(Nc1cccc(Cl)c1)c1ccncc12 + CC(C)CCN1c2nc(Nc3cc(F)c(O)c(F)c3)ncc2N(C)C(=O)C1C [BID1870] (first compound 0.4 µM, partner dose 0.2 µM)	64.2%
O=C(Nc1cc(C(F)(F)F)cc(C(F)(F)F)c1)c1cc(Cl)ccc1O + CCCCCCCCCCCCCCCCCCOP(=O)([O-])OC1CC[N+](C)(C)CC1 [Perifosine] (first compound 0.016 µM, partner dose 0.4 µM)	91.7%
O=C(O)c1ccc2c(c1)nc(Nc1cccc(Cl)c1)c1ccncc12 + C=C(c1ccc(C(=O)O)cc1)c1cc2c(cc1C)C(C)(C)CCC2(C)C [Bexarotene] (first compound 0.4 µM, partner dose 2 µM)	75%
O=C(O)c1ccc2c(c1)nc(Nc1cccc(Cl)c1)c1ccncc12 + N#Cc1c(O)c2c(-c3ccc(-c4ccccc4O)cc3)csc2[nH]c1=O [A769662] (first compound 0.4 µM, partner dose 2 µM)	76.8%
O=C(Nc1cc(C(F)(F)F)cc(C(F)(F)F)c1)c1cc(Cl)ccc1O + O=c1[nH]nc(Sc2ncc([N+](=O)[O-])s2)n1-c1ccc2c(c1)OCCO2 [BI78D3] (first compound 0.016 µM, partner dose 0.2 µM)	101%
O=C(O)[C@@H]1[O][Sb](=[O])([O][Sb]2(=[O])[O][C@H]([C@H](O)CO)[C@H](O)[C@H](C(=O)O)[O]2)[O][C@H]([C@H](O)CO)[C@@H]1O (some centres undefined) [stibogluconate] + COc1cc2ncnc(Nc3ccc(Oc4ccccc4)cc3)c2cc1OC [SrcI1] (first compound 2 µM, partner dose 2 µM)	95.2%
O=C(O)[C@@H]1[O][Sb](=[O])([O][Sb]2(=[O])[O][C@H]([C@H](O)CO)[C@H](O)[C@H](C(=O)O)[O]2)[O][C@H]([C@H](O)CO)[C@@H]1O (some centres undefined) [stibogluconate] + CCCS(=O)(=O)Nc1ccc(F)c(C(=O)c2c[nH]c3ncc(Cl)cc23)c1F [PLX4720] (first compound 2 µM, partner dose 0.08 µM)	74%
O=C(Nc1cc(C(F)(F)F)cc(C(F)(F)F)c1)c1cc(Cl)ccc1O + COc1ccc(C2=N[C@@H](c3ccc(Cl)cc3)[C@@H](c3ccc(Cl)cc3)N2C(=O)N2CCNC(=O)C2)c(OC(C)C)c1 [Nutlin-3] (first compound 0.016 µM, partner dose 0.1 µM)	117%
O=C(O)[C@@H]1[O][Sb](=[O])([O][Sb]2(=[O])[O][C@H]([C@H](O)CO)[C@H](O)[C@H](C(=O)O)[O]2)[O][C@H]([C@H](O)CO)[C@@H]1O (some centres undefined) [stibogluconate] + CCN(CC)CCCCNc1ncc2cc(-c3cc(OC)cc(OC)c3)c(NC(=O)NC(C)(C)C)nc2n1 [PD173074] (first compound 2 µM, partner dose 0.1 µM)	97.8%
Cc1cc(N2CCOCC2)cc2[nH]c(-c3c(NC[C@@H](O)c4cccc(Cl)c4)cc[nH]c3=O)nc12 + CC(C)CCN1c2nc(Nc3cc(F)c(O)c(F)c3)ncc2N(C)C(=O)C1C [BID1870] (first compound 0.2 µM, partner dose 0.2 µM)	87.7%
O=C(Nc1cc(C(F)(F)F)cc(C(F)(F)F)c1)c1cc(Cl)ccc1O + CC(C)(C)c1cnc(CSc2cnc(NC(=O)C3CCNCC3)s2)o1 [SNS-032] (first compound 0.016 µM, partner dose 0.01 µM)	132%
